Measurements: the supplement of paper PMC6206098
± gives the uncertainty stated by the source. Shown are siRNA guide strands that differ only in the seed, positions 2 to 7.

Experiments:
3LL = assay: cell viability relative to siNT1 control; higher = less toxic; conditions: concentration: 10 nM; 96 h; Mus musculus;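 further: Luminescence-based viability of cells reverse transfected in 384-well plates with lipid-complexed siRNAs built on a non-toxic 19mer backbone whose passenger strand carries 2′-O-methyl groups at positions 1 and 2, triplicates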
M565 = assay: cell viability relative to lipid-only control; HeyA8 human ovarian and H460 human lung cancer; M565 mouse liver and 3LL mouse lung cancer; siNT1 is a non-toxic control siRNA; higher = less toxic; conditions: concentration: 10 nM; 96 h; Mus musculus
Description: (§1)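 Arrayed screen of 4096 siRNA duplexes, each carrying one of all possible 6mer seeds at guide-strand positions 2-7 in a fixed neutral 19mer scaffold (constant flanks: U at position 1, then ACAUGUAAACCA, plus a 3' AA overhang). The passenger strand is 2'-O-methylated at positions 1-2 so only the guide strand loads into RISC. Duplexes were reverse-transfected at 10 nM with RNAiMAX in triplicate in 384-well plates; viability was read by CellTiter-Glo ATP content 96 h after transfection. Values are % viability normalised to lipid-only wells (HeyA8, H460, M565) or to siNT1 (3LL).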

HeyA8 = assay: as above; conditions: concentration: 10 nM; 96 h; Homo sapiens
Description: as §1

H460 = assay: as above; conditions: concentration: 10 nM; 96 h; Homo sapiens
Description: as §1
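Wherever cell viability relative to lipid-only control is given: reverse lipid transfection in 384-well plates, in triplicate, of duplexes on a non-toxic 19mer backbone with passenger strand 2′-O-methylated at positions 1 and 2, luminescence viability read-out.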

| Sequence | cell viability (3LL) | cell viability (M565) | cell viability (HeyA8) | cell viability (H460) |
| --- | --- | --- | --- | --- |
| UAAGCUCACAUGUAAACCAAA | 43.7 ± 6.9% | 60.1 ± 3.3% | 76.8 ± 7.5% | 68.2 ± 7.7% |
| UGUCCGAACAUGUAAACCAAA | 64.6 ± 14% | 39.2 ± 7.4% | 89.4 ± 4% | 84.3 ± 19% |
| UUAGGAGACAUGUAAACCAAA | 71.2 ± 9% | 83.7 ± 6% | 82.4 ± 5% | 75 ± 2.3% |
| UCGGUCUACAUGUAAACCAAA | 75.8 ± 20% | 36.1 ± 8.4% | 30.7 ± 2.8% | 35.7 ± 3.2% |
| UAACUCGACAUGUAAACCAAA | 90.6 ± 8.3% | 71.1 ± 5.3% | 94.4 ± 1.9% | 65.9 ± 5% |
| UACAAUUACAUGUAAACCAAA | 86.6 ± 11% | 57.1 ± 7.9% | 68.7 ± 1.4% | 83.7 ± 6.7% |
| UAUUUAGACAUGUAAACCAAA | 108 ± 20% | 127 ± 26% | 89.1 ± 14% | 84.4 ± 7.2% |
| UCAUGUGACAUGUAAACCAAA | 93 ± 19% | 41.2 ± 4.5% | 68.5 ± 3.9% | 37.2 ± 7.4% |
| UGAUACCACAUGUAAACCAAA | 34.3 ± 3.7% | 19.2 ± 6.8% | 4.04 ± 0.64% | 18.5 ± 0.56% |
| UUGACGUACAUGUAAACCAAA | 75.1 ± 7% | 53.5 ± 4.7% | 88.7 ± 6.9% | 77.6 ± 9.3% |
| UAGCGGUACAUGUAAACCAAA | 61 ± 3.5% | 19.7 ± 6.3% | 7.54 ± 0.9% | 36.96 ± 0.18% |
| UAAGUACACAUGUAAACCAAA | 64.6 ± 8.8% | 66 ± 7.8% | 33.5 ± 4.4% | 35.5 ± 6.2% |
| UUGCAUCACAUGUAAACCAAA | 39.9 ± 3.8% | 80.6 ± 8.6% | 28.3 ± 3.9% | 33.4 ± 3.3% |
| UAACCGAACAUGUAAACCAAA | 89 ± 4.9% | 66.8 ± 7.7% | 88.2 ± 1.7% | 67.4 ± 3.9% |
| UCGGCGCACAUGUAAACCAAA | 43.3 ± 5.7% | 19.1 ± 2.5% | 11.3 ± 1.3% | 24.1 ± 1.3% |
| UUGGCUUACAUGUAAACCAAA | 93.3 ± 4.6% | 72.9 ± 7.2% | 93.7 ± 13% | 88.8 ± 3.7% |
| UGUCGGUACAUGUAAACCAAA | 23.8 ± 3.9% | 35.3 ± 6.6% | 64.9 ± 7.3% | 46.4 ± 4.8% |
| UCUGGCGACAUGUAAACCAAA | 97.8 ± 11% | 41.9 ± 9.2% | 94.6 ± 12% | 75.9 ± 9.7% |
| UAUAUGAACAUGUAAACCAAA | 106 ± 15% | 89 ± 6.5% | 98.6 ± 9.7% | 59.6 ± 2.3% |
| UUUGUGCACAUGUAAACCAAA | 81.2 ± 4.3% | 69 ± 7.7% | 61 ± 3% | 84.9 ± 5.6% |
| UAUGAACACAUGUAAACCAAA | 94.9 ± 8.7% | 115 ± 19% | 94.7 ± 4.6% | 76.2 ± 15% |
| UCUAAACACAUGUAAACCAAA | 90.6 ± 17% | 67.1 ± 9.4% | 81.5 ± 11% | 48.8 ± 6.7% |
| UGAAUGAACAUGUAAACCAAA | 84.6 ± 16% | 40.6 ± 5.9% | 59.5 ± 9.5% | 59.9 ± 6.3% |
| UCUACGUACAUGUAAACCAAA | 94.8 ± 7.1% | 72.3 ± 14% | 80.8 ± 5.3% | 62.3 ± 1.9% |
| UGUUUAUACAUGUAAACCAAA | 89.9 ± 13% | 73.5 ± 8.2% | 78.1 ± 4.8% | 76 ± 2.1% |
| UUGACUAACAUGUAAACCAAA | 95 ± 14% | 88.5 ± 11% | 95.9 ± 6.7% | 71.9 ± 20% |
| UUGGGUAACAUGUAAACCAAA | 33.2 ± 3.7% | 74.7 ± 13% | 69.8 ± 2% | 54.9 ± 7.9% |
| UAGUGGCACAUGUAAACCAAA | 2.94 ± 0.21% | 58.8 ± 3.9% | 18.6 ± 1.2% | 25.4 ± 5.3% |
